Assay results reported in PubChem BioAssay AID1345083 (National Center for Advancing Translational Sciences (NCATS), 2018).
In all, about 94,000 compounds went through this assay and about 6,200 (6.6%) were called active. Inconclusive means that the source gave no clear call. Such entries were picked first, then a sample of the others. Calls follow the shape of the dose curve; as a rule, active = well fitted inhibition curve with a large enough effect; inconclusive = small, poorly fitted or top-dose-only effect; inactive = flat fitted curve, though single readings scatter. Potencies of inconclusive entries are doubtful fits and often do not repeat.

Assay: Cytotoxic Profiling in HEK 293 Cell Line of Diverse Libraries Using Quantitative High-Throughput Screening; also: nearly all actives have a fitted effect of over 60% in size
Settings: HEK 293 viability, ATP luminescence (CellTiter-Glo), 48-72 h; series mostly up to 115 µM
Procedure, shortened: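 250 HEK 293 cells/well; compound by pintool; incubated 48 or 72 hr at 37 degree Celsius; CellTiter-Glo added, 10 min RT, luminescence imaged.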
Potency is read from the fitted curve at half-maximal effect; tags tell the direction and shape of the fitted curve.

SMILES	Potency
CN(C)[C@H]1C[C@@H](Cc2cc(COc3ccccc3)on2)C1(C)C	inconclusive: 100 µM [inhibitor, partial curve, poor fit]
CCCCCC(=O)N1C[C@@H](CO)[C@@H]2Oc3c(F)cccc3[C@@H]21	inconclusive: 79.4 µM [inhibitor, partial curve]
O=C(N[C@H]1C[C@@H]2C(=O)N[C@H]3CCN(C(=O)c4cccs4)[C@@H]3C(=O)N2C1)C1CCCC1	inactive
Cc1cc(C(=O)N2CCC(Oc3cccnc3)C2)n(C)n1 (stereo not drawn)	inactive
Cc1cc2nc3n(c(=O)c2n1CC(=O)Nc1cccc(Cl)c1)CCCCC3	inconclusive: 79.4 µM [inhibitor, partial curve, poor fit]
COCC(=O)N1CCN(C(=O)CSCC(=O)O)C[C@H]1C(=O)N[C@H]1CCCNC1=O	inactive
O=C(CCCc1ccccc1)N1CCCC(Cc2nc(C3CCOCC3)no2)C1 (stereo not drawn)	inconclusive: 50.1 µM [inhibitor, partial curve, poor fit]
CC1=C(C(=O)Nc2ccccc2)C(c2ccc(F)cc2)N2C(CC(=O)NCC(C)C)=CSC2=N1 (stereo not drawn)	inconclusive: 44.7 µM [inhibitor, partial curve, poor fit]
CC(C)C(=O)N1CCOc2ccc(CN3CCc4ccccc4C3)cc2C1	inconclusive: 50.1 µM [inhibitor, partial curve, poor fit]
O=C(Cn1ccn2nc(-c3ccccc3)c(CO)c2c1=O)N1CCCc2ccccc21	inconclusive: 89.1 µM [inhibitor, single point]
CC(C)N1C(=O)C2(CCCC2)C1C(=O)NC1CCCCC1 (stereo not drawn)	inactive
CCCCC1CCCN1C(=O)c1coc(COc2cccc(F)c2F)n1 (stereo not drawn)	inconclusive: 89.1 µM [inhibitor, single point]
COc1cccc(NCc2nnc(C(=O)N3CCC[C@@H]3C(c3ccccc3)c3ccccc3)n2-c2cccnc2)c1	inconclusive: 79.4 µM [inhibitor, partial curve]
CC(C)CC(=O)N1CCCCCC1CN1CCC(C)CC1 (stereo not drawn)	inconclusive: 89.1 µM [inhibitor, partial curve, poor fit]
Cc1ccc(CNC(=O)Cn2c(N3CCC(C)CC3)nc(C)cc2=O)cc1	inconclusive: 89.1 µM [inhibitor, single point]
Cc1ccccc1-n1nc(-c2c(C)nc3scc(CC(=O)NCC(C)C)n3c2=O)cc1C	inactive
O=C1NCCCCCCN(Cc2cccc(F)c2)[C@H]2C[C@H](C(=O)N3CCc4ccccc4C3)C[C@@H]12	active: 25.1 µM
Cc1ccc(C(=O)N2CC(Oc3ccc(F)c(C)c3)C2)cc1	inconclusive: 100 µM [inhibitor, partial curve]
O=C(CC1CCCCC1)NCc1nnc2c(-c3nc(C4CC4)no3)cccn12	inactive
Cc1ccc(C)c(CN2CCc3nc(N(C)Cc4cccnc4)[nH]c(=O)c3CC2)c1	inconclusive: 39.8 µM [inhibitor, partial curve]
Cc1cccc(C(=O)N2CCC3(CC2)CC2C(=O)NCCN2C3)c1 (stereo not drawn)	inactive

SMILES	Potency
O=C(Nc1c(F)cccc1F)N1CCOc2ccc(CN3CCc4ccccc4C3)cc2C1	inconclusive: 79.4 µM [inhibitor, partial curve, poor fit]
COc1ccccc1Nc1ccnc(N2CCN(C(=O)c3ccccc3Cl)CC2)n1	inconclusive: 44.7 µM [inhibitor, partial curve, poor fit]
CNC(=O)c1cc(-c2ccc(O)c(F)c2)cc2c1OCCN2Cc1cccnc1	inconclusive: 89.1 µM [inhibitor, partial curve, poor fit]
O=C(Cc1c[nH]c2ncc(-c3cccc(OC(F)(F)F)c3)cc12)NCc1cccnc1	active: 70.8 µM
O=C(NCCCN1CCCC1)c1ccc(-c2ccc(N3CCCCC3)nc2)cc1	inconclusive: 70.8 µM [inhibitor, partial curve, poor fit]
CCn1cnnc1CC1CCCN(C(=O)NCc2ccccc2)C1 (stereo not drawn)	inactive
COc1ccc(-c2cn3cc(C(=O)NCc4cccnc4)nc3s2)cc1	inconclusive: 25.1 µM [inhibitor, full curve, poor fit]
O=C(Nc1ccccc1)N[C@H]1CO[C@H]2[C@@H]1OC[C@H]2OC(=O)Nc1ccccc1	inconclusive: 126 µM [inhibitor, single point]
CCOC(=O)[C@H]1C[C@]2(CCCCN(C)C2=O)N(C(=O)c2ccccc2)[C@H]1c1ccco1	inconclusive: 44.7 µM [inhibitor, partial curve]
Cc1noc(C)c1C(=O)N1CCCC(CCc2ccc(F)cc2F)C1 (stereo not drawn)	inconclusive: 35.5 µM [inhibitor, partial curve, poor fit]
N#Cc1cccc(C(=O)N2CCCCCCNC(=O)[C@@H]3C[C@@H](c4nc(-c5cnccn5)no4)C[C@@H]32)c1	inactive
O=C(c1cc(-c2ccccc2)n[nH]1)N1CCC(N2CC3CC(C2)[C@H]2CCCC(=O)N2C3)CC1 (stereo partly drawn)	inactive
COc1ccccc1-c1cc(C(=O)NCC2CC2)c2cnn(C)c2n1	inactive
CNC(=O)C1c2c(OC)ccc3c2C(=CC(C)(C)CO3)CN1Cc1ccccc1 (stereo not drawn)	inconclusive: 50.1 µM [inhibitor, partial curve, poor fit]
Cc1ccc2[nH]c(=O)cc(C(=O)N3CCOC(CCCC(C)C)C3)c2c1 (stereo not drawn)	inconclusive: 50.1 µM [inhibitor, partial curve, poor fit]
CCN1c2cc(C(=O)N3CCCCC3)ccc2C(=O)N2CCCCCC21 (stereo not drawn)	inconclusive: 70.8 µM [inhibitor, single point]
O=C(c1ccc(F)cc1)N1CCC(c2nn(-c3ccccn3)c(=O)[nH]2)CC1	inactive
COc1ccccc1-c1ccc(CN2CCC(NC(=O)c3ccccc3)C2)cc1 (stereo not drawn)	inconclusive: 50.1 µM [inhibitor, partial curve, poor fit]
COC[C@H]1CCCN1C(=O)C[C@@H]1O[C@H](CNC(=O)Nc2cccc(F)c2)[C@@H](O)[C@H]1O	inactive
O=C(c1cccc(Cl)c1)N1CCN(c2cc(-c3cccs3)[nH]n2)CC1	inconclusive: 56.2 µM [inhibitor, partial curve, poor fit]
CCN(CC)S(=O)(=O)c1ccc(-c2nc(C)ccc2OC)cc1	inconclusive: 79.4 µM [inhibitor, partial curve, poor fit]

SMILES	Potency
CC1=C(C(=O)OC(C)(C)C)C(c2ccc(Cl)cc2)N2C(CC(=O)N3CCCC3)=CSC2=N1 (stereo not drawn)	inconclusive: 50.1 µM [inhibitor, partial curve, poor fit]
COc1cccc(C(=O)N2CCC(C(=O)N3CC[C@@](C)(O)[C@@H](O)C3)CC2)c1	inactive
Cc1cccc(-c2nc3ccc(C(=O)N4CCOCC4)cc3o2)n1	active: 31.6 µM
CC(C)CN[C@H]1[C@H](O)[C@@H](N2CCC(Cc3ccccc3)CC2)[C@@H]2OC[C@H]1O2	inconclusive: 100 µM [inhibitor, partial curve, poor fit]
COc1cccc(NC(=O)NC[C@H]2O[C@H](Cc3cc(-c4ccc(F)cc4)on3)CC[C@@H]2O)c1	inconclusive: 56.2 µM [inhibitor, partial curve, poor fit]
O=C(c1ccc2c(c1)OCO2)N1CCCN(c2cc(-c3ccc(Br)cc3)[nH]n2)CC1	inconclusive: 39.8 µM [inhibitor, partial curve, poor fit]
Cc1ccc(F)c(OCC(=O)c2ccc3c(c2)N(CCCC(=O)N2CCOCC2)C(=O)CO3)c1	inconclusive: 89.1 µM [inhibitor, single point]
COc1ccc(C(=O)Nc2ccc(-c3noc([C@@H]4CCCN4CCCc4ccccc4)n3)cn2)cc1	active: 15.8 µM
O=C(NCCc1ccccc1)C1CCCCN1Cc1ccc(-c2ccsc2)cc1 (stereo not drawn)	active: 28.2 µM
CC(C)[S+](=O)([O-])N1CC2ON=C(C(=O)O)C2C1 (stereo not drawn)	inconclusive: 126 µM [inhibitor, single point]
c1ccc(CCCN2CC[C@H](c3nc4ccccc4[nH]3)C2)cc1	inconclusive: 70.8 µM [inhibitor, partial curve, poor fit]
CN(C(=O)c1ccc(-c2nnc3ccc(NC(=O)C4CCC4)cn23)cc1)C1CCCCC1	inconclusive: 44.7 µM [inhibitor, partial curve]
Cc1ccc(OCC(=O)N2CCC[C@H]2c2nc(-c3ccc(C)cc3)no2)cc1	inconclusive: 79.4 µM [inhibitor, partial curve]
CN1c2cc(C(=O)N3CCN(c4ccccc4Cl)CC3)ccc2C(=O)N2CCCCC21 (stereo not drawn)	active: 39.8 µM
Cc1cc(=O)n(CC(=O)NCCc2ccc(Cl)cc2)c(N2CCc3ccccc3C2)n1	inconclusive: 31.6 µM [inhibitor, full curve, poor fit]
COc1ccc(S(=O)(=O)N2CCC(Cc3nncn3-c3ccccc3)CC2)cc1	inactive
CN(C)CCNC(=O)c1nc(-c2cccc(N3CCOCC3)c2)cc2c1ccn2C	inconclusive: 112 µM [inhibitor, partial curve]
CC(C)CNc1ccc2c(n1)C(C)(C(=O)Nc1ccncc1)CN(Cc1ccccc1)C2 (stereo not drawn)	active: 31.6 µM
CC1(COc2ccc3[nH]ccc3c2)COc2ccc(C(=O)NCC3CCOCC3)cc2N1 (stereo not drawn)	inconclusive: 100 µM [inhibitor, partial curve]
CC(=O)NCc1nnc2n1C(C(=O)NCc1cccc(C(F)(F)F)c1)CC2 (stereo not drawn)	inactive
O=C(c1cccnc1)N1CC(CNc2ccccc2)C2(C1)CN(c1ccccc1)C2 (stereo not drawn)	inconclusive: 112 µM [inhibitor, partial curve]
